Over roughly 33,000 sequences, “E-score (dimensionless, -0.5 to 0.5)” has its median near -0.058; the highest 2% begin near 0.35. The list shows a part of the results.
The sequences below were run on MvaT (assay: PBM 8-mer E-score (mean of HK and ME arrays) (E-score (dimensionless, -0.5 to 0.5)); higher = stronger relative binding preference; most listed sequences are background and not binding sites).
Outline: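 Full-length P. aeruginosa MvaT carrying an N-terminal glutathione S-transferase tag was tested by protein binding microarray following a previously described protocol. Two universal double-stranded 60-mer arrays, ME and HK, were used, each with a constant 25-mer primer region and a variable 35-mer region covering all 8-mers. The rank-based E-score is the mean of the two arrays, parsed with a custom script. Its range runs from -0.5 to 0.5 for each 8-mer.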

Sequence | PBM 8-mer E-score
ACTTAACG | 0.127
CACGCTGC | -0.175
CAAGAGGC | -0.231
ATGTTCGC | -0.117
AAAGCGGT | -0.0387
CAGTGGGA | -0.137
GGGTTGGA | -0.0672
CATCAAAC | 0.0329
AAATAGTG | 0.136
CCCACAAA | 0.0328
CTTACGGA | -0.0455
CGGAGAAG | -0.204
GACTGGAA | 0.0566
AGTAAGAT | 0.171
AACTCTCA | 0.0312
CTCCTGGC | -0.241
GGTTGTTA | 0.0313
CGAACCAG | -0.104
AATGCAAT | 0.2
CCCTGTCA | -0.266
ATCGAGCG | -0.0148
AGGGCAGA | -0.0894
ACCCTGGA | -0.274
TCTACCAA | 0.0372
ACGGTTGA | -0.0318

Sequence | PBM 8-mer E-score
AGTACCCG | -0.155
AAAATTCA | 0.107
CAAAGGTC | -0.184
GATCTACA | 0.0246
ACAGACCT | -0.194
GGGAACGA | -0.193
AGTCTTCG | 0.0111
AATCGGAT | -0.00202
CCAGTCGA | -0.143
CCCACGGG | -0.324
ACCAGTGC | -0.188
AAGTGAGT | 0.0661
CGGTAAGA | -0.0992
GTGCACTA | -0.0182
AAGGAAGG | -0.24
GCTGTCAA | -0.0269
TCAGAACA | 0.0164
CACTAGTC | -0.0038
CAAGCTCC | -0.092
AACTGTGC | 0.00815
GGCACCAC | -0.0923
AATTCCCT | -0.0297
CATTGCGC | -0.146
ATAGACCA | -0.0371
TCCCCAGA | -0.221

Sequence | PBM 8-mer E-score
ATCACCGA | -0.178
GCGAGTAA | 0.123
TAAGTATA | 0.282
AGGCGCCC | -0.404
CGACAGTA | 0.107
ACAAAGTA | 0.179
AGTACATC | 0.154
AACACACC | 0.0682
ATATTGCC | 0.234
CGGCTGGA | -0.208
ACGCCCAA | -0.0508
AAAGTAAC | 0.206
ACCTCTAG | -0.023
AGTGAATA | 0.113
GGCGCAAC | -0.0502
AGTAATAC | 0.297
CGGCTAAA | -0.0268
GACGCGTC | -0.0993
GTTCCGTA | -0.0296
ACTAGAAG | 0.0485
AGGATGCG | -0.183
AAAAAGAT | 0.231
CTCCCCGC | -0.157
AGGAAGTA | 0.162
AACATGCG | 0.00306

Sequence | PBM 8-mer E-score
CCTAACGA | -0.147
AAAAGGGA | -0.0403
AAACACTA | 0.33
GTATACCA | 0.195
GGCCCCGA | -0.268
GAACCAGA | -0.143
AGATAGAG | 0.0268
CAAGTTCC | 0.0897
AAGTAGCG | 0.0717
CGGTCAAG | -0.217
ACGCATCA | -0.0743
CAGTTGAA | 0.103
ACTGTAAC | 0.246
CGGGTGCC | -0.223
AGTTTTAC | 0.221
CTTGACCA | 0.0132
CGCGTTGC | -0.203
ATGGCACC | -0.128
ACGTGGTG | -0.245
TGTTTGAA | 0.217
AGAATTCG | 0.0867
GGGGGTCA | -0.298
ATCCACGC | -0.0396
GTAATGAC | -0.00906
GTTTTACA | 0.177

Sequence | PBM 8-mer E-score
CTCTATTC | -0.0516
CTTCTCAA | -0.0991
CACTGCGA | 0.035
ACGTGCTA | 0.0354
CAATTCGC | 0.0872
CTGGGTTC | -0.126
AGGAGACA | -0.0249
GTAAGAGA | 0.0563
ACCTTTAT | 0.263
GCGTACCC | -0.267
GTCTAAGA | -0.0293
GTAGGTTA | 0.07
GCATCGGC | -0.213
GGCGGAGA | -0.14
CGCGTTGA | -0.0847
CCGAAGAC | -0.0827
GGAAGCCC | -0.254
CTCTAGCC | -0.267
ATCCAGGC | -0.224
AACCCGAG | -0.115
CTCGCCGC | -0.241
CGTAGAGA | -0.0538
ACCGGAGA | -0.162
GCCCTCAA | -0.0921
CTGTCGTA | -0.0425

Sequence | PBM 8-mer E-score
CGATATAC | 0.219
GGTCCCTA | -0.264
ATTTGTAA | 0.3
CAGCCCTA | -0.177
CTAACAGC | -0.0919
TCGTCCCA | -0.183
ATAGCCGA | -0.0375
AACGCAGT | -0.1
GGGATCTA | -0.143
GGGTTCAC | -0.111
ATGCTGTA | 0.0844
GAGTATCC | -0.0443
CATAGACC | -0.0627
GAGTATCA | 0.0268
TCGCATCA | -0.0785
CAGTAGTA | 0.13
ATGATCAG | -0.0537
AAGTGCTC | -0.139
CTCAGTGA | -0.00555
GCTGTAGA | -0.293
ACAATTCT | 0.122
ACCACCAA | 0.0915
ATGTGAAA | 0.195
CTTGTAAA | 0.192
GCAGGGAA | -0.147

Sequence | PBM 8-mer E-score
CTTCTACA | -0.00652
CGCCAACA | -0.0157
GGGGAGGA | -0.402
AAAACCGT | -0.101
AGCTTCCT | -0.2
AATCGGAA | 0.0103
AGTAATGG | 0.124
ATGGTTGG | 0.00713
GAACCTTA | -0.126
AGGACCCG | -0.183
ATTTCGTG | 0.082
ACTCACAC | 0.0585
AACAGAGG | -0.0504
GTCCAAAC | 0.0418
CGTACGTC | -0.176
GTACCATA | 0.203
AGAGGTTG | -0.105
AAATAGAC | 0.102
AAGCAACA | -0.00961
CAGGGTGC | -0.229
CCGTCCGC | -0.108
GATGAGAA | -0.0627
